This note sets out measurements from PubChem BioAssay AID463173 (ICCB-Longwood Screening Facility, Harvard Medical School, 2010).

The campaign covered roughly 52,000 compounds. About 1,700 (3.3%) were called active. Rule as the data show it: active = survival mostly below about 52% (no sharp cut-off); inactive = mostly above about 56%. This is one part of the list.

This assay relates to Wild type. Description: S. aureus survival, RN4220 and DeltatarO strains – OD600, teichoic acid synthesis inhibitors, primary screen (AID 463173). The note with it: S. aureus RN4220 wild type/DeltatarO growth, OD600, 18 h, active compounds read low, screened at 18.75 µg/mL (by protocol).
In the case of `CCC(=O)N1CCc2cc(Br)cc(S(=O)(=O)N3CCC(C(=O)NCCCOC(C)C)CC3)c21`, the survival is inactive: 133%.
On to `Cc1cccc(N2CCN(c3ncnc4c3nc3n4CCCCC3)CC2)c1C`, for which the survival was inactive: 76%.
As to `O=C(NC1CCCCC1)c1ccc(Cn2c(SCc3ccccc3F)nc3cccnc32)cc1`, the survival is inactive: 66%.
The figure for `COc1cccc(C(=O)Nc2cccc(C(=O)OCc3cc(=O)n4nc(C5CC5)sc4n3)c2)c1` is inactive: 67%; for `Nc1c(-c2nc(-c3cccs3)no2)nnn1-c1ccc(Cl)cc1` it is inactive: 89%.
As to `O=C(Cn1cc(C(=O)c2ccco2)c2ccccc21)Nc1ccc(Br)cc1`, the survival was inactive: 126%.
Turning to `CCOC(=O)c1cnn(-c2ccc(C(=O)Nc3cc(OC)c(OC)c(OC)c3)cc2)c1N`, the survival was inactive: 78%.
Consider `CSc1ncc2c(n1)-c1ccccc1N(Cc1ccc(Cl)cc1)S2(=O)=O`, for which the survival was inactive: 88%.
With `O=C(CSc1ccccc1)N1CCc2c([nH]c3ccccc23)C1c1ccc(F)cc1` (stereo not given), the survival is inactive: 71%.
With `CC1CCN(S(=O)(=O)c2cn(CC(=O)Nc3cccc(C(F)(F)F)c3)c(=O)c3ccccc23)CC1`, the survival was inactive: 65%.
As to `COC(=O)c1cc2oc3ccccc3c2n1Cc1nc(-c2ccc(OC)cc2)oc1C`, the survival is inactive: 80%.
The figure for `CCn1c(C(=O)NCCc2ccc(OC)c(OC)c2)cc2sc(Cl)cc21` is inactive: 63%; for `CCCCNc1nc(Oc2ccc(OCC)nn2)nc(N2CCOCC2)n1` it is inactive: 91%.
Turning to `COc1cccc(NC(=O)c2ccc3nc(CCc4ccccc4)oc3c2)c1`, the survival is inactive: 94%.
The figure for `COc1ccc(Cl)cc1NC(=O)c1c(NCc2ccc(C)o2)sc2c1CCCCC2` is inactive: 80%.
Regarding `CCC1CCCCN1C(=O)Cn1c(=O)n(CCCCCC(=O)NCc2ccccc2)c(=O)c2sccc21` (stereo not given), the survival was inactive: 75%.
For `CSc1ncc(Cl)c(C(=O)Nc2ccc(NC(C)=O)cc2)n1`, the survival was inactive: 83%.
The figure for `COc1cccc(CSc2nc3ccccc3c3nc(CCn4c(C)nc5ccccc54)nn23)c1` is inactive: 85%.
`CCCn1c2ccccc2c2cnn(CC(=O)N(C)c3ccc(F)cc3)c(=O)c21`: the survival is inactive: 159%.
For the compound `CCn1c(COc2cccc(C)c2)nnc1SCC(=O)NC(C)(C)C`, the survival is inactive: 99%.
As for `Cc1ccc(-n2ncc(C(=O)NCc3ccccc3C)c2-n2cccc2)cc1`, the survival is inactive: 88%.
For `O=C(NCc1ccc2c(c1)CCN2C(=O)c1ccc(F)cc1)c1cc2ccccc2[nH]1`, the survival is inactive: 99%.
With `COc1ccc(-c2[nH]c3ccccc3c2SCCNC(=O)c2cc(OC)c(OC)c(OC)c2)cc1`, the survival is inactive: 74%.
With `COc1ccccc1CNC(=O)CCC(=O)N1CC2CCCN2c2ccccc21` (stereo not given), the survival was inactive: 80%.
The value for `CCCCn1c(SCC(=O)N2CCCCC2)nc2ccccc2c1=O` was inactive: 110%; that for `Cc1cccc(C)c1OCCn1c(C2CC(=O)N(c3cccc(Cl)c3)C2)nc2ccccc21` (stereo not given) was inactive: 84%; that for `COc1cccc(NC(=O)C2CCCN(S(=O)(=O)c3c(C)nn(C)c3C)C2)c1` (stereo not given) was inactive: 79%.
The value for `O=C(Cc1ccc(Cl)cc1)Nc1ccc2nn(-c3ccc(Cl)cc3)nc2c1` was inactive: 80%; that for `c1ccc(CNc2nc3c(-c4ccccc4)nnn3c3ccccc23)cc1` was inactive: 95%; that for `COc1ccc(SCc2cc(=O)c3cc(Cl)ccc3[nH]2)cc1` was inactive: 84%.
With `Cc1ccc(CNC(=O)c2ccc(Cn3c(=O)c4ccccc4n(CC(=O)Nc4ccc(C)cc4C)c3=O)cc2)cc1`, the survival is inactive: 85%.
The value for `CCOc1ccc(OCC)c(NS(=O)(=O)c2cc(-c3cc(C)no3)ccc2C)c1` was inactive: 90%; that for `CC(C)N(C)NC(=S)Nc1ccccc1` was inactive: 117%; that for `CCc1ccccc1N1C(=O)N(Cc2ccc(C#N)cc2)c2ccccc2S1(=O)=O` was inactive: 129%.
The value for `CC(C)Sc1oc(-c2cccs2)nc1S(=O)(=O)c1ccc(Cl)cc1` was inactive: 66%; that for `CCOc1ccc(CCNC(=O)c2cn(CC)c3ccc(S(=O)(=O)N4CCc5ccccc5C4)cc3c2=O)cc1OCC` was inactive: 70%.
For the compound `CCn1c2ccccc2c2cc(CN3CCN(Cc4ccccc4F)CC3)ccc21`, the survival was active: 4%.
Turning to `Cc1nc(C)c(C(=O)Nc2ccccc2)s1`, the survival is inactive: 106%.
Turning to `CCOc1ccc(S(=O)(=O)NCCc2sc3nc(-c4ccc(F)cc4)nn3c2C)cc1`, the survival is inactive: 63%.
On to `COc1ccc(-c2cc(C(F)(F)F)nc(S(=O)(=O)CCCC(=O)Nc3cccc(O)c3)n2)cc1OC`, for which the survival was inactive: 84%.
For the compound `CCC(=O)Oc1ccc(/C=C(\C#N)c2nc3ccccc3[nH]2)cc1OC`, the survival was inactive: 63%.
For `CCc1ccc(NCc2cc3cc4c(cc3n(CC(=O)Nc3ccc(C)cc3)c2=O)OCO4)cc1`, the survival was inactive: 113%.
Take `CCOc1ccccc1NC(=O)C(=O)NCCc1sc(-c2cccc(F)c2)nc1C`: the survival is inactive: 72%.
Regarding `CSc1nc(-c2ccccc2F)c(C#N)c(=O)n1C`, the survival was inactive: 117%.
Consider `CCOc1ccc(NC(=O)C2CCCN(S(=O)(=O)c3cccc4nonc34)C2)cc1` (stereo not given), for which the survival is inactive: 91%.
Regarding `Cc1ccc(Nc2c(-c3cccs3)nc3nc(C)cc(C)n23)cc1`, the survival was inactive: 65%.
For the compound `CC(=O)c1ccc(NC(=O)CSc2nnc3ccc(-c4ccc(Cl)cc4)nn23)cc1`, the survival was inactive: 92%.
Take `Cc1oc2ncnc(N3CCCCC3)c2c1C(=O)N1CCN(c2cccc(C(F)(F)F)c2)CC1`: the survival is inactive: 87%.
In the case of `CCOc1ccc(NC(=O)NCc2c(-n3cccc3)sc3c2CCCC3)cc1`, the survival is inactive: 88%.
The value for `CCOc1ccc(NC(=O)CSc2nccn2Cc2ccco2)cc1` was inactive: 90%; that for `COc1ccc(-c2nc3ccccc3s2)cc1NC(=O)COc1ccc(C)cc1` was inactive: 123%; that for `CCC(=O)Nc1ccc2c(c1)C(=O)OC2` was inactive: 110%.
The figure for `COc1ccc(OCC(=O)OCc2cc(=O)n3cc(C)sc3n2)cc1` is active: 1%; for `CN1C(=O)CSC1=Nc1ccc(F)cc1` it is inactive: 131%.
In the case of `CCC1CCCCN1S(=O)(=O)c1ccc(C(=O)Nc2sc3c(c2C(=O)NC)CCC3)cc1` (stereo not given), the survival is inactive: 73%.
The figure for `CCOCCCN1C(=O)CN(C2CCCCCC2)C(=O)C1c1ccc(OC(C)C)c(OC)c1` (stereo not given) is inactive: 99%.
The figure for `COc1ccc(NC(=O)c2cc3nc(-c4ccc(C)c(C)c4)cc(C(F)(F)F)n3n2)cc1` is inactive: 90%.
Regarding `COc1ccccc1CNC(=O)c1oc2ccc(S(=O)(=O)N3CCCCC3)cc2c1C`, the survival was inactive: 77%.
On to `CCc1ccccc1NC(=O)c1ccc2c(O)c(S(=O)(=O)c3ccccc3)c(=O)[nH]c2c1`, for which the survival was inactive: 86%.
With `CCOC(=O)C1CCN(C(=O)CCS(=O)(=O)c2cc3c(cc2Cl)NC(=O)CO3)CC1`, the survival is inactive: 84%.
The figure for `CCCC(C)NS(=O)(=O)Cc1ccccc1` (stereo not given) is inactive: 108%; for `Cc1ccc(CSc2ncc(Cl)c(C(=O)NCCc3ccc(S(N)(=O)=O)cc3)n2)cc1` it is inactive: 78%.
As to `COc1ccc(NC(=O)CSc2nc(-c3ccc(OC)cc3)[nH]c2-c2ccc(OC)cc2)cc1`, the survival is inactive: 76%.
The figure for `Cc1ccc(N(CC(=O)NCc2ccc(Cl)cc2)S(=O)(=O)N(C)C)cc1` is inactive: 84%; for `Cc1ccc(N(Cc2ccc(C(=O)NCc3ccco3)cc2)S(C)(=O)=O)cc1C` it is inactive: 103%.
Regarding `COc1ccc(-c2cc(OC(=O)c3ccc(Cl)cc3)c3c(C)oc(C)c3c(=O)c2)cc1`, the survival was inactive: 78%.
As for `COC(=O)c1ccc(Nc2nnc(-c3ccc(C)c(S(=O)(=O)N4CCN(C)CC4)c3)c3ccccc23)cc1`, the survival is inactive: 69%.
Regarding `Cc1cccc(CN2C(=O)c3ccccc3S(=O)(=O)c3ccc(C(=O)NCCC4=CCCCC4)cc32)c1`, the survival was inactive: 91%.
As for `Cc1ccc(C(=O)Nc2cccc(-c3nc4cccnc4s3)c2C)cc1`, the survival is inactive: 112%.
On to `COc1ccc(C2C(C#N)=C(N)OC3=C2C(=O)CCC3)cc1` (stereo not given), for which the survival is inactive: 98%.
In the case of `O=C(CC1C(=O)N(c2ccccc2)C(=O)N1CCC1=CCCCC1)Nc1ccc(F)cc1` (stereo not given), the survival is inactive: 66%.
The figure for `CCCN1CCN(CCNC(=O)Nc2ccc(OC)cc2OC)CC1` is inactive: 88%; for `O=C(NC1CCCCC1)C1CC(c2ccccc2O)=NO1` (stereo not given) it is inactive: 114%.
For the compound `COc1ccccc1N(CC(=O)NCCSCc1ccccc1)S(=O)(=O)c1ccc(C)cc1`, the survival was inactive: 67%.
Turning to `COCCNC(=O)Cn1nc(N2CCN(c3ccccc3OC)CC2)ccc1=O`, the survival is inactive: 78%.
The figure for `CCOc1ccc(NC(=O)N2CCN(S(=O)(=O)c3ccc4c(ccn4C)c3)CC2)cc1` is inactive: 73%; for `Cc1ccccc1NC(=O)CSc1nc(-c2ccccc2C)nc2cc(=O)[nH]n12` it is inactive: 94%; for `O=C1CN(C(=O)Cc2ccc(F)cc2)C(c2ccccc2)c2cc(Cl)ccc2N1` (stereo not given) it is inactive: 121%.
Regarding `COc1ccc(NC(=O)Cn2c(=O)n(C(C)C)c(=O)c3oc4ccccc4c32)cc1Cl`, the survival was inactive: 66%.
On to `CCc1ccc(C(=O)c2cn(CC(=O)Nc3ccc(F)cc3)c3ccc(OC)cc3c2=O)cc1`, for which the survival was inactive: 79%.
As for `CC(=O)N1CCN(c2csc3ccc(F)cc3c2=O)CC1`, the survival was inactive: 72%.
The figure for `Cc1nn(-c2ccccc2)c(OC(=O)C(C)C)c1Sc1ccccc1` is inactive: 57%; for `Brc1cccc(CNCCSc2nnnn2-c2ccccc2)c1` it is inactive: 61%; for `CCc1ccccc1N(C)C(=O)Cc1c(C(=O)O)c(C)cn1C` it is inactive: 73%.
The figure for `Cc1cc(C)cc(OCC(=O)NCCc2nc3ccccc3[nH]2)c1` is inactive: 129%; for `Cc1ccc(NC(=O)Cc2ccc(-n3c(C)nc4cccnc43)cc2)cc1C` it is inactive: 120%; for `O=C(O)CC1=C(c2cccs2)CCC1=O` it is inactive: 105%.
`Cc1cc(C)c(NC(=O)C(C)n2nc(-c3ccc(C)c(C)c3)ccc2=O)c(C)c1` (stereo not given): the survival is inactive: 87%.
Regarding `COc1cccc(CNC(=O)CCc2cn(Cc3ccccc3Cl)c3ccccc23)c1`, the survival is inactive: 106%.
For the compound `CCCCOc1ccc(S(=O)(=O)Nc2ccc(-c3ccc(N4CCCCCC4)nn3)cc2)cc1`, the survival was inactive: 75%.
